The whole screen tested about 310,000 compounds, of which about 14,000 (4.5%) showed an effect of 50% or more. The effect is printed as a negative number. The list shows a part of the results.
The compounds below were run against human ether-à-go-go-related gene (hERG) potassium channel (human, UniProt Q12809) (assay: primary screen, population patch clamp on CHO cells stably expressing hERG).
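Also: peak tail current of the secondary pulse compared with the same well before compound.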

Sequence of human ether-à-go-go-related gene (hERG) potassium channel (Q12809 whole entry, looked up): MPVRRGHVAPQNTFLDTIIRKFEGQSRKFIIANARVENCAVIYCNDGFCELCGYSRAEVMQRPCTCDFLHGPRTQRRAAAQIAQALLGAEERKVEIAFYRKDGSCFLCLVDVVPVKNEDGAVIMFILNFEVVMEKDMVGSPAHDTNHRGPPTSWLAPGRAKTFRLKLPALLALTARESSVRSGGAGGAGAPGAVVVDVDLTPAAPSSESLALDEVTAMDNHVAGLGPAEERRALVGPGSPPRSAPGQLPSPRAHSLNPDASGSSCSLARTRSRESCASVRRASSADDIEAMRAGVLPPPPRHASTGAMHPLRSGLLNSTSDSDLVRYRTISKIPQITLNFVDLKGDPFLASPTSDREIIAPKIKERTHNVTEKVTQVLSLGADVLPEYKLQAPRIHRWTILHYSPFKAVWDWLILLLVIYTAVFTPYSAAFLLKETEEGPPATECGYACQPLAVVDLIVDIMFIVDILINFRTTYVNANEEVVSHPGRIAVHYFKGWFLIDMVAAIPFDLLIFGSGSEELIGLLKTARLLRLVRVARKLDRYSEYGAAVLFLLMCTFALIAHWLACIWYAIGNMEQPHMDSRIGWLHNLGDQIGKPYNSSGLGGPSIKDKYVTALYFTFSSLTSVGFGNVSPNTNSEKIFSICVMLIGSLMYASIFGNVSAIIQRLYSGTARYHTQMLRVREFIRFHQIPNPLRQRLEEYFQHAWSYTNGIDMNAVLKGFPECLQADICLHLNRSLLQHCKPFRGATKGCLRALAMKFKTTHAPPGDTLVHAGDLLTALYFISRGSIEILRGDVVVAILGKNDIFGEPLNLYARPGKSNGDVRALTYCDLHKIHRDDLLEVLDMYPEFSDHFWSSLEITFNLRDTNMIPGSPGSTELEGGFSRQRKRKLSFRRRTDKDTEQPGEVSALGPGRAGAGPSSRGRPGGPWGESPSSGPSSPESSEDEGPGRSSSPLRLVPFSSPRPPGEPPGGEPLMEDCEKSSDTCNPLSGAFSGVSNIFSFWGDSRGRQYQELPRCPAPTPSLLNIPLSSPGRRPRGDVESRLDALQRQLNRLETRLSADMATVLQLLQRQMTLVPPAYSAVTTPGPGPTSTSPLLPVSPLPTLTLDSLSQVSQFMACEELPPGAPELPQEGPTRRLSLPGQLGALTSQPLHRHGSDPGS

| SMILES | hERG current change (%, negative = inhibition) at 10uM |
| --- | --- |
| O=C(Cn1ccc2ccccc2c1=O)NCC(=O)N1CCCCC1 | 28.3% |
| C=CCn1c(SCC(=O)Nc2cccnc2Cl)nnc1-c1ccc(Cl)cc1 | -45.4% |
| COc1ccc(C(=O)NC2CC(C)(C)NC(C)(C)C2)cc1OC | 21.4% |
| CCCCNC(=O)c1c(CSc2ccccc2)noc1C(=O)NCc1ccccc1 | 28.1% |
| Cc1cccc(NC(=O)CN2C(=O)c3ccccc3C2=O)c1C | 0.742% |
| CC(C)NC(=O)Cn1nc(C(F)(F)F)c2c1CCC2 | 7.42% |
| CC1=C(C(=O)O)N2C(=O)C(NC(=O)Cc3ccccc3)C2SC1 (centres unmarked) | 8.13% |
| Cc1cc2nn(-c3ccc(F)cc3)nc2cc1N | 17.4% |
| CCCc1ccc(OCc2ccc(C(=O)NN)o2)c(OC)c1 | 4.83% |
| CC(O)CNC(=S)Nc1ccccc1 (centres unmarked) | 3.24% |
| CCOC(=O)C1CCN(C(=O)CCNS(=O)(=O)c2cc(Br)cnc2N)CC1 | -9.33% |
| CC(Sc1ccccc1)C(=O)NCC1COc2ccccc2O1 (centres unmarked) | -13.8% |
| COCC(C)NC(=O)CSc1nc2nn(-c3ccccc3)c(=O)c-2c2n1CCCCC2 (centres unmarked) | 8.5% |
| CC(=O)Nc1ccc(S(=O)(=O)Nc2nccs2)cc1 | 11% |
| C[C@@H](CC#N)CN1CC[C@H](C(C)(C)C)CCC1=O | 0.574% |
| COCCN1Cc2cccc(C(=O)NC3CCCCCC3)c2C1=O | -19.6% |
| O=C1NC(NS(=O)(=O)c2ccc(Cl)cc2)(C(F)(F)F)C(=O)N1Cc1cccnc1 (centres unmarked) | 10.4% |
| CCN(Cc1ccccc1)C(=O)Cn1c(=O)oc2ccccc21 | 23.1% |
| COc1cccc(CNC(=O)CCC2CCCN(C(=O)c3ccc(F)c(Cl)c3)C2)c1 (centres unmarked) | -16.6% |
| CN(C)/C=N/c1ncc(C(=O)c2ccc(Cl)cc2)s1 | -12.2% |
| CC1(NC(=O)N2CCCCC2)CCS(=O)(=O)C1 (centres unmarked) | 9.71% |
| O=C1CSC(c2cn(-c3ccccc3)nc2-c2cc3ccccc3oc2=O)N1Cc1cccnc1 (centres unmarked) | -41.6% |
| Cc1cccc(C)c1NC(=O)N1C2CCCC1CC(NC(=O)C(C)(C)C)C2 (centres unmarked) | 10.2% |
| Nc1nonc1-n1nnc(C(=O)N/N=C/c2c(F)cccc2Cl)c1-c1ccc2c(c1)OCO2 | 9.15% |
| Cc1ccsc1/C=N/NC(=O)C(=O)NCC(C)C | 6.07% |
| Cc1c(NC(=O)CSc2nnc(-c3cccnc3)n2N)c(=O)n(-c2ccccc2)n1C | 9.79% |

Reference: paper PMC4336329 (PLoS ONE, 2015)
